From publication PMC4336329 (PLoS ONE, 2015)
About 14,000 (4.5%) of roughly 310,000 compounds showed an effect of 50% or more. Effects have a minus sign here. The list shows a part of the results.

What follows are compounds tested against human ether-à-go-go-related gene (hERG) potassium channel (human, UniProt Q12809) (assay: primary screen, population patch clamp on CHO cells stably expressing hERG).
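Further: peak tail current of the secondary pulse compared with the same well before compound.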

human ether-à-go-go-related gene (hERG) potassium channel, sequence (Q12809 whole entry, looked up): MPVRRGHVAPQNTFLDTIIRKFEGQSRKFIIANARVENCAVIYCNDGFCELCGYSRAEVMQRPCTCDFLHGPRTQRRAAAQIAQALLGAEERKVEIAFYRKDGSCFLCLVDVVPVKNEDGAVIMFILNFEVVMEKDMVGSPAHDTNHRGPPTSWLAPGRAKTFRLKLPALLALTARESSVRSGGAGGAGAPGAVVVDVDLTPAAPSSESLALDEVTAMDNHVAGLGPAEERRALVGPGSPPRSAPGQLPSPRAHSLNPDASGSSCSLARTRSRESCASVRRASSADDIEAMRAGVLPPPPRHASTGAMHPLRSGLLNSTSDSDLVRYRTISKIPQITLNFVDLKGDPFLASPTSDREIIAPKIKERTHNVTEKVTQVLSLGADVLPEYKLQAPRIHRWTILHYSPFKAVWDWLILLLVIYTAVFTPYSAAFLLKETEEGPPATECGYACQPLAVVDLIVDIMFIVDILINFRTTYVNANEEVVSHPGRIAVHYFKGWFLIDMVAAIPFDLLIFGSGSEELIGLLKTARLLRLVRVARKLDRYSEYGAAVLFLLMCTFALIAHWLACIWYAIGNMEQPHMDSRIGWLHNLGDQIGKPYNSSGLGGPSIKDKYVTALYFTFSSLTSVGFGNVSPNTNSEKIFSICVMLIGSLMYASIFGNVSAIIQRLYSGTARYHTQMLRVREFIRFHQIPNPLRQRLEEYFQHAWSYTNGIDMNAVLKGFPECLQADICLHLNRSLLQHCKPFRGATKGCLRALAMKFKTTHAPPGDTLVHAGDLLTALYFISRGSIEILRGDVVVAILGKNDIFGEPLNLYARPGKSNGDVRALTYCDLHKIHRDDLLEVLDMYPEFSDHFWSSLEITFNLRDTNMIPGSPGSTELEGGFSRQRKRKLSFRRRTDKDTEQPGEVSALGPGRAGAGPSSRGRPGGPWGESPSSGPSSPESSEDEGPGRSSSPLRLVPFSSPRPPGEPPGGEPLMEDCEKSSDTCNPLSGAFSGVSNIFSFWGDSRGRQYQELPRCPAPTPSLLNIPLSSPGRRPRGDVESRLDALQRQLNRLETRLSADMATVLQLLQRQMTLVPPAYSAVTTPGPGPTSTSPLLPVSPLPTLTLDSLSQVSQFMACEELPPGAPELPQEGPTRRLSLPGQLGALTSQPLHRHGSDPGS

Row | SMILES | hERG current change (%, negative = inhibition) at 10uM
1 | CCOc1ccc(Nc2nc(CC(=O)OC)cc(=O)[nH]2)cc1 | -0.095%
2 | NNC(=O)C(Cc1cnc[nH]1)NC(=O)OCc1ccccc1 (stereo not drawn) | 12.3%
3 | COCCCNC(=O)C1=CCN(S(=O)(=O)c2ccc(C)cc2)CC1 | -2.19%
4 | CCN(CC)CCNC(=O)CCCCn1c(=S)[nH]c2c([nH]c3ccc(OC)cc32)c1=O | 33.2%
5 | COC1CCCN(C(=O)c2ccc(OC3CCN(S(=O)(=O)N(C)C)CC3)cc2)C1 (stereo not drawn) | 8.14%
6 | CCSC1=C(C#N)C(c2ccccc2OC)CC(=O)N1 (stereo not drawn) | -9.7%
7 | C/C=C/C(=O)Nc1cccc(C(F)(F)F)c1 | 8.5%
8 | COC(=O)c1ccccc1NC(=O)c1cnn2cccnc12 | 13%
9 | Cc1cc(C)cc(N(CC(=O)NC(C)C)C(=O)CCC(=O)Nc2ccccn2)c1 | 5.94%
10 | CCc1nc2ccc(C(=O)NCCCN3CCN(c4ccc(F)cc4)CC3)cc2nc1CC | -66.4%
11 | COC(=O)c1cccnc1N1CCN(c2ccccc2F)CC1 | -13.4%
12 | O=C(NNC(=O)C1CCN(C(=O)Nc2ccccc2)CC1)c1ccc([N+](=O)[O-])cc1 | 2.62%
13 | Cc1cc(NC(=O)CSc2n[nH]c(=O)[nH]c2=O)ccc1Br | 26.6%
14 | Cc1ccccc1-c1nc(CS(=O)(=O)CC(=O)NCCN2CCCC2)c(C)o1 | -10.4%
15 | CCNCc1cc(OCC)c(OCC(=O)NCCc2ccccc2)cc1Cl.Cl | -13%
16 | Cc1cc(C)c(C2=NOC3C4CCC(C4)C23)c(C)c1 (stereo not drawn) | -0.313%
17 | Cc1ccccc1C(=O)NNC(=O)C(=O)N1CCCCC1 | 0.748%
18 | Cc1cccc(NC(=S)N(Cc2ccc(Cl)cc2)Cc2ccc(C(=O)O)cc2)c1 | 12.3%
19 | COC(=O)CCC(=O)OC1(C)C(=O)C2=CN(Cc3ccco3)C(c3ccc(OC)cc3)=CC2=C(Br)C1=O (stereo not drawn) | -3.32%
20 | CC1CCN(c2ccc3c(c2)S(=O)(=O)c2cccc(C(=O)NCc4ccc(F)cc4)c2C3=O)CC1 | -4%
21 | Br.O=C(N=c1nc2ccccn2s1)c1ccccc1 | 14.1%
22 | COc1cc(CN2CCC(n3nccc3NC(=O)c3ccccc3OC)CC2)ccc1F | -76.7%
23 | O=C(c1ccccc1)N1CCC(CC2CC(c3ccc(Cl)cc3)=NO2)(C(=O)NCC2CCCCC2)CC1 (stereo not drawn) | -52%
24 | O=C(NCCc1nc2ccccc2[nH]1)c1ccc([N+](=O)[O-])cc1 | -56.8%
